# Laboratory results reported in the supplement of paper PMC10037445.
# In all, about 2,900 compounds were measured (“IRF Lucia reporter activity, fold change vs agonist alone”: median about 0.9, highest 2% from about 2.8 on). This is one part of the list.
# Experiments:
# RAW-Dual [1] = assay: IRF Lucia reporter activity, fold change vs agonist alone; higher = enhanced IRF activity; details: agonist: MPLA (TLR4) […]
# How it was run: (§1)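 RAW-Dual macrophages were seeded in DMEM at 50,000 cells/well in 384-well plates, given 50 nL of library stock by pin tool, and given a PRR agonist 1 h later. Plates were held at 37 °C, 5% CO2 for 20 hours, after which supernatant was read for IRF by QuantiLuc luminescence and for NF-κB by QuantiBlue absorbance at 620 nm. Reporter activity is expressed as fold change over wells that received agonist alone. A well was called cytotoxic when IncuCyte confluency fell below 70% of agonist controls in both mask sets.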
# RAW-Dual [2] = assay: IRF Lucia reporter activity, fold change vs agonist alone; cytotoxicity flag (confluency mask): cytotoxic (confluency <70% of control); higher = enhanced IRF activity
# How it was run: as §1
# RAW-Dual [3] = assay: IRF Lucia reporter activity, fold change vs agonist alone; cytotoxicity flag (confluency mask): not cytotoxic; higher = enhanced IRF activity
# How it was run: as §1
# [4] = library stock concentration (final ~1000-fold dilution): 10 mM, cytotoxicity flag (confluency mask): cytotoxic (confluency <70% of control)
# [5] = agonist: 3'3'-cGAMP (STING) 10 ug/mL
# [6] = library stock concentration (final ~1000-fold dilution): 10 mM, cytotoxicity flag (confluency mask): not cytotoxic
smiles,measurement,setting,value
CN1CCN(C2CCN(C(=O)Nc3cc(Oc4ccc(NC(=O)C5(C(=O)Nc6ccc(F)cc6)CC5)c(F)c4)ccn3)CC2)CC1,IRF Lucia reporter activity,RAW-Dual [1]; [4],1.91
CN1CCN(C2CCN(C(=O)Nc3cc(Oc4ccc(NC(=O)C5(C(=O)Nc6ccc(F)cc6)CC5)c(F)c4)ccn3)CC2)CC1 (library stock concentration (final ~1000-fold dilution): 10 mM),IRF Lucia reporter activity,RAW-Dual [2]; [5],0.781
same,IRF Lucia reporter activity,RAW-Dual [2]; agonist: LPS (TLR4) 0.1 ug/mL,0.874
CC(C)=CCC[C@](C)(O[C@@H]1O[C@H](CO[C@@H]2O[C@H](CO)[C@@H](O)[C@H](O)[C@H]2O)[C@@H](O)[C@H](O)[C@H]1O)[C@H]1CC[C@]2(C)[C@@H]1[C@H](O)C[C@@H]1[C@@]3(C)CC[C@H](O[C@@H]4O[C@H](CO)[C@@H](O)[C@H](O)[C@H]4O[C@@H]4O[C@H](CO)[C@@H](O)[C@H](O)[C@H]4O)C(C)(C)[C@@H]3CC[C@]12C (library stock concentration (final ~1000-fold dilution): 10 mM),IRF Lucia reporter activity,RAW-Dual [3]; [5],0.142
same,IRF Lucia reporter activity,RAW-Dual [3]; agonist: LPS (TLR4) 0.1 ug/mL,0.445
CCCC(=O)OCOC(=O)C1=C(C)NC(C)=C(C(=O)OC)C1c1cccc(Cl)c1Cl (stereo not drawn),IRF Lucia reporter activity,RAW-Dual [1]; [6],0.992
CCCC(=O)OCOC(=O)C1=C(C)NC(C)=C(C(=O)OC)C1c1cccc(Cl)c1Cl (stereo not drawn) (library stock concentration (final ~1000-fold dilution): 10 mM),IRF Lucia reporter activity,RAW-Dual [3]; [5],1.02
same,IRF Lucia reporter activity,RAW-Dual [3]; agonist: LPS (TLR4) 0.1 ug/mL,0.873
CN(C/C=C/C#CC(C)(C)C)Cc1cccc2ccccc12 (library stock concentration (final ~1000-fold dilution): 10 mM),IRF Lucia reporter activity,RAW-Dual [3]; [5],1.26
same,IRF Lucia reporter activity,RAW-Dual [3]; agonist: LPS (TLR4) 0.1 ug/mL,1.26
CN(C/C=C/C#CC(C)(C)C)Cc1cccc2ccccc12,IRF Lucia reporter activity,RAW-Dual [1]; [6],0.91
CN1CCN(c2ccc(OC(F)(F)F)c(Nc3ncc4c(n3)-c3c(c(C(N)=O)nn3CCO)CC4)c2)CC1,IRF Lucia reporter activity,RAW-Dual [1]; [6],0.656
CN1CCN(c2ccc(OC(F)(F)F)c(Nc3ncc4c(n3)-c3c(c(C(N)=O)nn3CCO)CC4)c2)CC1 (library stock concentration (final ~1000-fold dilution): 10 mM),IRF Lucia reporter activity,RAW-Dual [3]; [5],0.405
same,IRF Lucia reporter activity,RAW-Dual [3]; agonist: LPS (TLR4) 0.1 ug/mL,0.364
Cc1cc(C)c(CNC(=O)c2cc(-c3ccc(N4CCN(C)CC4)nc3)cc3c2c(C)cn3C(C)C)c(=O)[nH]1 (library stock concentration (final ~1000-fold dilution): 10 mM),IRF Lucia reporter activity,RAW-Dual [3]; [5],0.211
same,IRF Lucia reporter activity,RAW-Dual [3]; agonist: LPS (TLR4) 0.1 ug/mL,0.68
O=C(CNc1ccc2ccccc2c1)N/N=C/c1cc(Br)c(O)c(Br)c1O (library stock concentration (final ~1000-fold dilution): 10 mM),IRF Lucia reporter activity,RAW-Dual [3]; [5],0.323
same,IRF Lucia reporter activity,RAW-Dual [3]; agonist: LPS (TLR4) 0.1 ug/mL,1.28
CC(C)=CCCC(C)(OC1OC(CO)C(O)C(O)C1O)C1CCC2(C)C1C(O)CC1C3(C)CCC(O)C(C)(C)C3C(OC3OC(CO)C(O)C(O)C3OC3OCC(O)C(O)C3O)CC12C (stereo not drawn) (library stock concentration (final ~1000-fold dilution): 10 mM),IRF Lucia reporter activity,RAW-Dual [3]; [5],0.924
same,IRF Lucia reporter activity,RAW-Dual [3]; agonist: LPS (TLR4) 0.1 ug/mL,1.2
CC(C)=CCCC(C)(OC1OC(CO)C(O)C(O)C1O)C1CCC2(C)C1C(O)CC1C3(C)CCC(O)C(C)(C)C3C(OC3OC(CO)C(O)C(O)C3OC3OCC(O)C(O)C3O)CC12C (stereo not drawn),IRF Lucia reporter activity,RAW-Dual [1]; [6],1.01
CCN(CC)Cc1ccc2cc(COC(=O)Nc3ccc(C(=O)NO)cc3)ccc2c1.Cl.O,IRF Lucia reporter activity,RAW-Dual [1]; [6],1.07
CCN(CC)Cc1ccc2cc(COC(=O)Nc3ccc(C(=O)NO)cc3)ccc2c1.Cl.O (library stock concentration (final ~1000-fold dilution): 10 mM),IRF Lucia reporter activity,RAW-Dual [3]; [5],1.03
same,IRF Lucia reporter activity,RAW-Dual [3]; agonist: LPS (TLR4) 0.1 ug/mL,0.611
O=C(C(Cc1cccc(C(F)(F)F)c1)NS(=O)(=O)c1cc(F)c2c(c1)CCNC2)N1CCCC1 (stereo not drawn) (library stock concentration (final ~1000-fold dilution): 10 mM),IRF Lucia reporter activity,RAW-Dual [3]; [5],0.86
same,IRF Lucia reporter activity,RAW-Dual [3]; agonist: LPS (TLR4) 0.1 ug/mL,1.04
O=C(C(Cc1cccc(C(F)(F)F)c1)NS(=O)(=O)c1cc(F)c2c(c1)CCNC2)N1CCCC1 (stereo not drawn),IRF Lucia reporter activity,RAW-Dual [1]; [6],1.12
CNC(=O)C(NC(=O)C(CC(C)C)C(O)C(=O)NO)C(C)(C)C (stereo not drawn),IRF Lucia reporter activity,RAW-Dual [1]; [6],0.948
CNC(=O)C(NC(=O)C(CC(C)C)C(O)C(=O)NO)C(C)(C)C (stereo not drawn) (library stock concentration (final ~1000-fold dilution): 10 mM),IRF Lucia reporter activity,RAW-Dual [3]; [5],0.695
same,IRF Lucia reporter activity,RAW-Dual [3]; agonist: LPS (TLR4) 0.1 ug/mL,0.911
C=CCSCC=C,IRF Lucia reporter activity,RAW-Dual [1]; [6],1.05
C=CCSCC=C (library stock concentration (final ~1000-fold dilution): 10 mM),IRF Lucia reporter activity,RAW-Dual [3]; [5],1.01
same,IRF Lucia reporter activity,RAW-Dual [3]; agonist: LPS (TLR4) 0.1 ug/mL,1.39
CCN1CC(CCN2CCOCC2)C(c2ccccc2)(c2ccccc2)C1=O.Cl.O (stereo not drawn) (library stock concentration (final ~1000-fold dilution): 10 mM),IRF Lucia reporter activity,RAW-Dual [3]; [5],1.09
same,IRF Lucia reporter activity,RAW-Dual [3]; agonist: LPS (TLR4) 0.1 ug/mL,1.45
CCN1CC(CCN2CCOCC2)C(c2ccccc2)(c2ccccc2)C1=O.Cl.O (stereo not drawn),IRF Lucia reporter activity,RAW-Dual [1]; [6],1.11
CC(NC(=O)Cc1cc(F)cc(F)c1)C(=O)NC1C(=O)N(C)c2ccccc2-c2ccccc21 (stereo not drawn) (library stock concentration (final ~1000-fold dilution): 10 mM),IRF Lucia reporter activity,RAW-Dual [3]; [5],0.663
same,IRF Lucia reporter activity,RAW-Dual [3]; agonist: LPS (TLR4) 0.1 ug/mL,1.05
CC(NC(=O)Cc1cc(F)cc(F)c1)C(=O)NC1C(=O)N(C)c2ccccc2-c2ccccc21 (stereo not drawn),IRF Lucia reporter activity,RAW-Dual [1]; [6],1.2
C=CCNC1=C2CC(C)CC(OC)C(O)C(C)/C=C(\C)C(OC(N)=O)C(OC)/C=C\C=C(/C)C(=O)NC(=CC1=O)C2=O (stereo not drawn),IRF Lucia reporter activity,RAW-Dual [1]; [4],2.09
C=CCNC1=C2CC(C)CC(OC)C(O)C(C)/C=C(\C)C(OC(N)=O)C(OC)/C=C\C=C(/C)C(=O)NC(=CC1=O)C2=O (stereo not drawn) (library stock concentration (final ~1000-fold dilution): 10 mM),IRF Lucia reporter activity,RAW-Dual [2]; [5],0.888
same,IRF Lucia reporter activity,RAW-Dual [2]; agonist: LPS (TLR4) 0.1 ug/mL,2.19
C1CCN2CC3CC(CN4CCCCC34)C2C1.O.O.O.O.O.O=S(=O)(O)O (stereo not drawn),IRF Lucia reporter activity,RAW-Dual [1]; [6],0.949
C1CCN2CC3CC(CN4CCCCC34)C2C1.O.O.O.O.O.O=S(=O)(O)O (stereo not drawn) (library stock concentration (final ~1000-fold dilution): 10 mM),IRF Lucia reporter activity,RAW-Dual [3]; [5],0.932
same,IRF Lucia reporter activity,RAW-Dual [3]; agonist: LPS (TLR4) 0.1 ug/mL,0.909
CCC(C)n1ncn(-c2ccc(N3CCN(c4ccc(OCC5COC(Cn6cncn6)(c6ccc(Cl)cc6Cl)O5)cc4)CC3)cc2)c1=O (stereo not drawn) (library stock concentration (final ~1000-fold dilution): 2 mM),IRF Lucia reporter activity,RAW-Dual [3]; [5],0.82
same,IRF Lucia reporter activity,RAW-Dual [3]; agonist: LPS (TLR4) 0.1 ug/mL,1.91
CCC(C)n1ncn(-c2ccc(N3CCN(c4ccc(OCC5COC(Cn6cncn6)(c6ccc(Cl)cc6Cl)O5)cc4)CC3)cc2)c1=O (stereo not drawn),IRF Lucia reporter activity,"RAW-Dual [1]; library stock concentration (final ~1000-fold dilution): 2 mM, cytotoxicity flag (confluency mask): not cytotoxic",1.6
